B1: GPR68, Q15743 (parent)
chain: MGNITADNSSMSCTIDHTIHQTLAPVVYVTVLVVGFPANCLSLYFGYLQIKARNELGVYLCNLTVADLFYICSLPFWLQYVLQHDNWSHGDLSCQVCGILLYENIYISVGFLCCISVDRYLAVAHPFRFHQFRTLKAAVGVSVVIWAKELLTSIYFLMHEEVIEDENQHRVCFEHYPIQAWQRAINYYRFLVGFLFPICLLLASYQGILRAVRRSHGTQKSRKDQIQRLVLSTVVIFLACFLPYHVLLLVRSVWEASCDFAKGVFNAYHFSLLLTSFNCVADPVLYCFVSETTHRDLARLRGACLAFLTCSRTGRAREAYPLGAPEASGKSGAQGEEPELLTKLHPAFQTPNSPGSGGFPTGRLA

The variants in data set [1] derive from B1. As to the kind of experiment: cAMP reporter score (Enrich2 score, wild type = 0); higher = more signal; HEK293T, FACS bins.
Variants of B1 are the subject of data set [2]. As to the kind of experiment: surface expression score (Enrich2 score, wild type = 0); higher = more signal; HEK293T, FACS bins.

Scores whose standard error is large were omitted. Two further conditions of the source, in which the scores hardly spread, are not listed. Names with del lack the residues named; names with ins carry added residues between the positions named. For some of these results: How much ogerin was present is not stated here.

For T134_K136del, the cAMP reporter score was -1.22 in data set [1] (pH 5.5); -1.07 in data set [1] (pH 6); -1.36 in data set [1] (pH 6, modulator: ogerin); -1.9 in data set [1] (pH 6.5, modulator: ogerin). In data set [2], the surface expression score is -2.73.
In the same order, the values of A137_A138del are -1.11, 0.476, -0.303, 0.636 and -0.921.
Take W146F: the cAMP reporter score is -1.13 in data set [1] (pH 5.5); -1.78 in data set [1] (pH 6, modulator: ogerin); -1.16 in data set [1] (pH 6.5, modulator: ogerin). Besides, in data set [2], the surface expression score is -2.29.
In the case of W146C, the cAMP reporter score in data set [1] (pH 5.5) was -1.45; in data set [1] (pH 6), -1.18; in data set [1] (pH 6, modulator: ogerin), -2.06; in data set [1] (pH 6.5, modulator: ogerin), -1.18. Moreover, the surface expression score in data set [2] was -2.34.
With T134M, the cAMP reporter score in data set [1] (pH 5.5) was -1.46; in data set [1] (pH 6), -0.769; in data set [1] (pH 6, modulator: ogerin), -1.27; in data set [1] (pH 6.5, modulator: ogerin), -1.38. Also, the surface expression score in data set [2] is -2.
With T134G, the cAMP reporter score in data set [1] (pH 5.5) was -0.367; in data set [1] (pH 6), -1.28; in data set [1] (pH 6, modulator: ogerin), -1.61; in data set [1] (pH 6.5, modulator: ogerin), -1.39. The surface expression score in data set [2] is -2.17.
Take T134I: the cAMP reporter score in data set [1] (pH 5.5) was -0.844; in data set [1] (pH 6) it was -1.19. Also, the surface expression score in data set [2] was -3.2.
With T134P, the cAMP reporter score is -2.45 in data set [1] (pH 5.5); -1.7 in data set [1] (pH 6); -0.959 in data set [1] (pH 6.5, modulator: ogerin). In data set [2], the surface expression score is -2.95.
For the variant T134D, the cAMP reporter score in data set [1] (pH 5.5) is -0.222; in data set [1] (pH 6) it was 0.616; in data set [1] (pH 6, modulator: ogerin), -0.762; in data set [1] (pH 6.5, modulator: ogerin), -0.792. Moreover, the surface expression score in data set [2] is -2.56.
As to T134L, the cAMP reporter score in data set [1] (pH 5.5) was -1.52; in data set [1] (pH 6), -1.53; in data set [1] (pH 6, modulator: ogerin), -0.337; in data set [1] (pH 6.5, modulator: ogerin) it was -2.09.
Regarding T134S, the cAMP reporter score in data set [1] (pH 5.5) was 0.43; in data set [1] (pH 6), -0.163; in data set [1] (pH 6, modulator: ogerin) it was 1.38; in data set [1] (pH 6.5, modulator: ogerin), 0.543. In data set [2], the surface expression score is -0.245.
In the same order, the values of T134Q are 0.507, -0.894, -0.069, -0.74 and -1.75.
On to T134C, for which the cAMP reporter score in data set [1] (pH 5.5) was 1.02; in data set [1] (pH 6), -0.723; in data set [1] (pH 6, modulator: ogerin), 0.331; in data set [1] (pH 6.5, modulator: ogerin), -0.83. For the same variant, in data set [2], the surface expression score was -2.35.
Taken in the same sequence, the figures for T134A were 0.529, -1.07, 0.886, -0.51 and -2.55.
Turning to T134E, the cAMP reporter score in data set [1] (pH 5.5) is 0.262; in data set [1] (pH 6, modulator: ogerin) it was -1.48; in data set [1] (pH 6.5, modulator: ogerin) it was -1.09. Moreover, the surface expression score in data set [2] was -2.31.
Taken in the same sequence, the figures for T134N were 0.633, 0.902, 0.243 and -0.366.
Take T134F: the cAMP reporter score in data set [1] (pH 5.5) is -0.407; in data set [1] (pH 6), -0.233; in data set [1] (pH 6, modulator: ogerin), -1.7; in data set [1] (pH 6.5, modulator: ogerin), -0.437.
Turning to T134V, the cAMP reporter score is -0.701 in data set [1] (pH 5.5); 0.33 in data set [1] (pH 6); -2.46 in data set [1] (pH 6, modulator: ogerin); -0.935 in data set [1] (pH 6.5, modulator: ogerin). Besides, the surface expression score in data set [2] is -1.69.
In the same order, the values of T134Y are -0.555, -1.08, -1.11, -1.57 and -2.65.
In the same order, the values of T134K are -0.547, -1.25, -1.18, -0.603 and -1.75.
Taken in the same sequence, the figures for T134W were -2.48, -1.47, -1.13, -1.28 and -1.42.
Regarding T134R, the cAMP reporter score in data set [1] (pH 5.5) is -0.431; in data set [1] (pH 6), -0.415; in data set [1] (pH 6, modulator: ogerin) it was -0.028; in data set [1] (pH 6.5, modulator: ogerin) it was -0.513. Besides, in data set [2], the surface expression score is -1.42.
On to T134H, for which the cAMP reporter score in data set [1] (pH 5.5) was -1.52; in data set [1] (pH 6) it was -0.572; in data set [1] (pH 6, modulator: ogerin) it was -1.35; in data set [1] (pH 6.5, modulator: ogerin), -1.25. In addition, the surface expression score in data set [2] was -2.64.
V143del: the cAMP reporter score was -1.34 in data set [1] (pH 5.5); -0.85 in data set [1] (pH 6); -1.89 in data set [1] (pH 6, modulator: ogerin); -1.02 in data set [1] (pH 6.5, modulator: ogerin). The surface expression score in data set [2] was -1.98.
Taken in the same sequence, the figures for V143_V144del were -1.15, -0.533, -0.887, -0.704 and -2.78.
Taken in the same sequence, the figures for F132_R133del were -1.52, -1.6, -0.984, -0.78 and -2.92.
Taken in the same sequence, the figures for V139_G140insGSG were -0.336, -0.771, -1.86, -1.81 and -1.61.
As to I145_A147del, the cAMP reporter score was -0.853 in data set [1] (pH 5.5); -2.13 in data set [1] (pH 6); -1.72 in data set [1] (pH 6, modulator: ogerin); -0.494 in data set [1] (pH 6.5, modulator: ogerin). The surface expression score in data set [2] was -2.92.
Taken in the same sequence, the figures for R133_T134del were -1.27, -0.73, -1.66, -1.09 and -2.19.
Take V141del: the cAMP reporter score in data set [1] (pH 5.5) is -0.857; in data set [1] (pH 6, modulator: ogerin) it was -0.674; in data set [1] (pH 6.5, modulator: ogerin), -0.431.
Regarding K136_A137insG, the cAMP reporter score in data set [1] (pH 5.5) was -1.57; in data set [1] (pH 6), -1.14; in data set [1] (pH 6, modulator: ogerin), -1.86; in data set [1] (pH 6.5, modulator: ogerin) it was -1.54. Further, the surface expression score in data set [2] is -2.95.

Values taken from the GPR68 mutational scans of Howard et al. (2025).
